pIC50, pKd: −log10 of the molar value. Where two headings read alike, the source gives them in different places.
Legend:
[1] = molecular target: T1, mouse FcRn-eGFP transduced HeLa cells (Mus musculus, UniProt Q61559, INS109QKRG); experiment: Flow cytometry binding of Alexa647 labeled Z variants to FcRn-eGFP HeLa cells; type: cell-based; settings: 620 nM Alexa647 labeled His6-tagged Z variant; pH 6.0
T1 construct: expressed in transfected cells; host or cells: HeLa cervix adenocarcinoma cells (lentiviral transduction), formaldehyde-fixed and saponin-permeabilised
T1 sequence (Q61559 with tags, fused parts or gaps INS109QKRG): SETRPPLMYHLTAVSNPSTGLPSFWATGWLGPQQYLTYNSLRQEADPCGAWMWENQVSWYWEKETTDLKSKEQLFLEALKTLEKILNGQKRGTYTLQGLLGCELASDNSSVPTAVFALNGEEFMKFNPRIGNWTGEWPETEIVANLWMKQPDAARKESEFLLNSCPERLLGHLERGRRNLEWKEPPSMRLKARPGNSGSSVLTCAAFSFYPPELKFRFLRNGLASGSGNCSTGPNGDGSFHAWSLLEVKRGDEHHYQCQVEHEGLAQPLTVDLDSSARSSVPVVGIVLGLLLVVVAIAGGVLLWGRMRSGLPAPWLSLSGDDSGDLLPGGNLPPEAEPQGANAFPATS
T1 sequence (P01887 21-119 partner): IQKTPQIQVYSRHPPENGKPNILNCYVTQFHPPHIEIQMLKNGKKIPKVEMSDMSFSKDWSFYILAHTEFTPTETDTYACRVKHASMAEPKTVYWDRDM
Experimental: (§1) hFcRn-eGFP and mFcRn-eGFP HeLa cells were harvested by trypsination and washed twice in PBS at pH 6.0 before counting. 100,000 cells were pipetted per well of a v-bottomed 96 well plate (Nunc, cat no 277143) and the cells in the plate were subsequently pelleted at 1,700 rpm for 4 min at 4° C. The supernatants were removed and the cells were fixed with 50 μl of 2% formaldehyde (Sigma Aldrich, cat. no. F8775) in PBS at pH 6.0 for 10 min at RT. […] Transduced HeLa cells, incubated with buffer alone, were used as control. The cells were incubated for 1 h at 8° C. on a shaker in the dark, washed with 2×100 μl PBSC and resuspended in 180 μl of PBS pH 6.0 plus 1% BSA (fraction V, Merck, cat. no. 1.12018.0100). 10,000 cells/well were analyzed in a Gallios Flow Cytometer (Beckman Coulter) and the data was analyzed using Kaluza software (Beckman Coulter).

[2] = molecular target: T2, human FcRn-eGFP transduced HeLa cells (Homo sapiens, UniProt P55899); experiment: as above; type: cell-based; settings: 620 nM Alexa647 labeled His6-tagged Z variant; pH 6.0
T2 construct: expressed in transfected cells; host or cells: HeLa cervix adenocarcinoma cells (lentiviral transduction), formaldehyde-fixed and saponin-permeabilised
T2 sequence (P55899 24-365): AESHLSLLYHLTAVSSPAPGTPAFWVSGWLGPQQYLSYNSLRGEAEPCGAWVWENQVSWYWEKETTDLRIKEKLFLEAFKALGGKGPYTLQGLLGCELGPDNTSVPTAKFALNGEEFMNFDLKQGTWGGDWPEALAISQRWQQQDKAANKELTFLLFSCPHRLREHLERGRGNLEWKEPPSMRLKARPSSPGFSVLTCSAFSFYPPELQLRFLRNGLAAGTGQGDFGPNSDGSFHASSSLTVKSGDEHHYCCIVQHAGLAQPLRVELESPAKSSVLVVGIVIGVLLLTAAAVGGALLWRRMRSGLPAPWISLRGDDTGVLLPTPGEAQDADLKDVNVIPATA
T2 sequence (P61769 21-119 partner): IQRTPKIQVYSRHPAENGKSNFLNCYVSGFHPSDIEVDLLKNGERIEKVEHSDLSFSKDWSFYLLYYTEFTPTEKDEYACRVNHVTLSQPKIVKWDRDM
Experimental: as §1

[3] = CD analysis with variable temperature measurement; type: physicochemical; settings: His6-tagged Z variants 0.5 mg/ml in PBS; CD at 221 nm, 20 to 90° C.
Experimental: Purified His6-tagged Z variants were diluted to 0.5 mg/ml in PBS. For each diluted Z variant, a CD spectrum at 250-195 nm or 250-190 nm was obtained at 20° C. In addition, a variable temperature measurement (VTM) was performed to determine the melting temperature (Tm). In the VTM, the absorbance was measured at 221 nm while the temperature was raised from 20 to 90° C., with a temperature slope of 5° C./min. A new CD spectrum was obtained at 20° C. after the heating procedure in order to study the refolding ability of the Z variants. The CD measurements were performed on a Jasco J-810 spectropolarimeter (Jasco Scandinavia AB) using a cell with an optical path-length of 1 mm.

human FcRn [4] = molecular target: T3, human FcRn (Homo sapiens, UniProt P55899); experiment: AlphaLISA blocking assay (IgG binding to FcRn); set-up: purchased Biorbyt orb84388; settings: 10 nM biotinylated human FcRn, pH 6.0
Experimental: The potential of Z variants to inhibit binding of IgG to FcRn was analyzed in an AlphaLISA assay with an EnSpire multiplate reader 2300 (Perkin Elmer). Human IgG (Roactemra) was immobilized on AlphaLISA acceptor beads (Perkin Elmer, cat. no. 6772002) according to the manufacturer's recommendations. Stepwise serial dilutions 1:3 of His-tagged Z variants to final concentrations of 250 nM to 38 pM were made in a 384-well plate (Perkin Elmer, cat. no. G6005350) and incubated for 45 min with 10 nM biotinylated human FcRn (Biorbyt, cat. no. orb84388; biotinylated essentially as described in Example 2) in AlphaLISA buffer (Perkin Elmer, cat. no. AL000F) adjusted to pH 6.0 using HCl. IgG-coated Acceptor beads were added to a final concentration of 10 μM and incubated for 45 min. Finally, streptavidin coated Donor beads (Perkin Elmer, cat. no. 6772002) were added to a final concentration of 40 μg/ml and incubated for 30 min. All incubations were performed at RT in the dark. The plate was analyzed in the EnSpire instrument and the IC50 values were calculated using GraphPad Prism 5.
The potential of Z variants to inhibit binding of IgG to FcRn was analyzed in the AlphaLISA assay described in Example 3.

hFcRn = molecular target: T4, hFcRn (Homo sapiens, UniProt P55899); experiment: Biacore 3000 affinity, one site binding saturation model; settings: His6-tagged, 25° C.
T4 construct: made in house; host or cells: human SKOV-3 cells, lentivirally transduced, secreted; purified on immobilized human IgG
T4 sequence (P55899 24-290): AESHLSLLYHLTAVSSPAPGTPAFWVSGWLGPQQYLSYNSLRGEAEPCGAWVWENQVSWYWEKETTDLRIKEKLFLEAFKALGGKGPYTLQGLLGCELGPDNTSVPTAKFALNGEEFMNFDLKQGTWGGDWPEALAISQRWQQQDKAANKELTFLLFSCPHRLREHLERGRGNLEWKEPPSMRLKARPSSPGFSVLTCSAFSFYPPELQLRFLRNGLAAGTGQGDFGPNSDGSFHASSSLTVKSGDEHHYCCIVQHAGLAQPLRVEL
T4 sequence (P61769 21-119 partner): as the sequence (P61769 21-119 partner) above
Experimental: (§2) In a separate experiment, the affinity of the interactions of Z variants to hFcRn (SEQ ID NO:1065) and mFcRn (SEQ ID NO:1070), respectively, was measured at both pH 6.0 and pH 7.4 on a Biacore 3000 instrument (GE Healthcare). hFcRn and mFcRn were produced essentially as described in Example 1 but using mouse 3T3 cells instead of human SKOV-3 cells for production of mFcRn, and immobilized on separate flow cells on a CM5 chip in acetate buffer at pH 4.65. The immobilization level was approximately 1000 RU for both receptors. A reference flow cell was created by activation and deactivation. 0.005% PCT pH 6.0 or 7.4 was used as running buffer and for dilution of the analytes. All analyses were performed at 25° C. […] The affinities were derived using GraphPad Prism 5 software, using a one site binding saturation model.

mFcRn = molecular target: T5, mFcRn (Mus musculus, UniProt Q61559, INS109QKRG); experiment: as above; settings: His6-tagged, 25° C.
T5 construct: made in house; host or cells: mouse 3T3 cells
T5 sequence (Q61559 with tags, fused parts or gaps INS109QKRG): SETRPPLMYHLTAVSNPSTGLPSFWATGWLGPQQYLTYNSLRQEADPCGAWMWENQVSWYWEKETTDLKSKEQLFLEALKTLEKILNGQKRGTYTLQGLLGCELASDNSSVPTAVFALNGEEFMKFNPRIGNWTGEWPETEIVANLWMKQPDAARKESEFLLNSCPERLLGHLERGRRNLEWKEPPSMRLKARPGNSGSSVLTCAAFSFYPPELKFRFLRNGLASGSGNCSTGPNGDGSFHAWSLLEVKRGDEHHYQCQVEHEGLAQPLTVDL
T5 sequence (P01887 21-119 partner): T1 sequence (P01887 21-119 partner)
Experimental: as §2

human FcRn [5] = molecular target: T3, human FcRn; experiment: Biacore binding at pH 6.0 and dissociation at pH 6.0 vs pH 7.4; set-up: made in house; host or cells: human SKOV-3 cells, lentivirally transduced, secreted; purified on immobilized human IgG; settings: comparison among the seventeen Z variants
Experimental: The interaction of FcRn binding His6-tagged Z variants with human FcRn was analyzed in a Biacore 2000 instrument (GE Healthcare). Human FcRn was immobilized in a flow cell on the carboxylated dextran layer of a CM5 chip surface (GE Healthcare). The immobilization was performed using amine coupling chemistry according to the manufacturer's protocol and using HBS-EP (GE Healthcare) as running buffer. One flow cell surface on the chip was activated and deactivated for use as blank during analyte injections. In the two binding experiments presented below, McIlvaines phosphate-citrate buffer pH 6.0 supplemented with 0.005% Tween-20 (0.005% PCT) was used as running buffer. In all experiments, a flow rate of 50 μl/min was used.
In one experiment, the dissociation at pH 6.0 was compared to the dissociation at pH 7.4. His6-tagged Z variants and a human monoclonal IgG1 were diluted in running buffer to a final concentration of 250 nM or 2.5 nM, respectively, and injected over the FcRn chip for 1 minute using the co-inject procedure. The second injection of the co-inject procedure, representing the dissociation phase of the interactions, contained either running buffer (pH 6.0) or 0.005% PCT pH 7.4. […] IgG was allowed to dissociate for 4 minutes before equilibration. […] The results were analyzed in BiaEvaluation software 4.1 (GE Healthcare). […]

mouse IgG in serum = experiment: Increased IgG catabolism in mice, mouse IgG ELISA; type: in vivo; settings: male NMRI mice; 16.3 μmol/kg; five i.v. injections at 0, 24, 48, 72 and 96 h
Experimental: The mice were treated with five intravenous injections given at 0, 24, 48, 72 and 96 h. Serum samples were taken at 0, 72, 120 and 168 h (termination of study) and stored at −20° C. The concentration of mouse IgG in serum was quantified by ELISA.
The concentration of mouse IgG in mouse serum samples was analyzed by a mouse IgG ELISA kit (Mabtech 3825-1AD-6) and performed as described by the manufacturer. The concentration of mIgG was calculated from a standard curve provided and GraphPad prism5 using a non-linear regression formula. The concentration of IgG in individual mice at 24, 72, 120 and 168 h were related to the level at 0 h and the results are therefore presented as percentage of IgG (0 h).

human FcRn [6] = molecular target: T3, human FcRn; experiment: Biacore kinetic analysis, maturated Z variants; type: binding; set-up: purchased Biorbyt orb84388; settings: pH 6.0, His6-tagged, approximate
Experimental: The interaction of FcRn binding His6-tagged Z variants with human FcRn was analyzed in a Biacore 2000 instrument essentially as described in Example 3. Human FcRn purchased from Biorbyt (cat. no. orb84388) was used as target protein. The analytes were injected during 2 minutes at 30 μl/min. The dissociation phase was 4 minutes and the equilibration time between the analyte injections was 30 minutes.
In another experiment, approximate kinetic constants (kon and koff) and affinities (KD) were determined for a subset of Z variants. Injected concentrations were 540 nM, 180 nM, 60 nM, 20 nM and 6.7 nM.

[7] = His6-tagged primary Z variants and dimers
[8] = pH 6.0, read-out: KD (M) mFcRn pH 6.0
[9] = pH 7.4, read-out: KD (M) mFcRn pH 7.4

Substance	binding to HeLa cells displaying murine FcRn-eGFP [1]	binding to HeLa cells displaying human FcRn-eGFP [2]	Tm (° C.) [3]	pIC50 (human FcRn [4]; [7])	Kd (mFcRn; [8])	Kd (mFcRn; [9])	other results
Z07930: FcRn binding Z variant, 58 amino acid residues, from phage display selection (VDAKYAKESDSAVHEIRWLPNLTFDQRVAFIHKLLDDPSQSSELLSEAKKLNDSQAPK; Engineered FcRn binding polypeptide)	capable of binding	capable of binding	56 °C	7.38			
Z07960: FcRn binding Z variant, 58 amino acid residues, from phage display selection (VDAKYAKEFESAAHEIRWLPNLTYDQRVAFIHKLSDDPSQSSELLSEAKKLNDSQAPK; Engineered FcRn binding polypeptide)	capable of binding	capable of binding	58 °C	7.38	3.5e-07 M	> 5e-06 M	Kd (hFcRn; pH 6.0, read-out: KD (M) hFcRn pH 6.0): 5e-08 M; Kd (hFcRn; pH 7.4, read-out: KD (M) hFcRn pH 7.4): > 1e-06 M
Z10193: FcRn binding Z variant, 58 amino acid residues, from phage display selection (VDAKYAKEWMRAAHEIRWLPNLTFDQRVAFIHKLEDDPSQSSELLSEAKKLNDSQAPK; Engineered FcRn binding polypeptide)			59 °C	7.92	9.5e-08 M	> 5e-07 M	dissociation curves (human FcRn [5]): slowest dissociation curves
Z11948: Z07918 but starting with the amino acids AE instead of VD; in Table 6 and PK as fusion to PP013-Z03638 (AEAKYAKEQDAAAHEIRWLPNLTFDQRVAFIHKLADDPSQSSELLSEAKKLNDSQAPK; Engineered FcRn binding polypeptide)							concentration of endogenous IgG in mice (mouse IgG in serum): lowered the concentration of endogenous IgG
Z13621: FcRn binding Z variant from the maturated library (VDAKYAKEADAAGHEIRWLPNLTFDQRVAFIHKLRDDPSQSSELLSEAKKLNDSQAPK; Engineered FcRn binding polypeptide)							pKd (human FcRn [6]): 8.22; koff (human FcRn [6]): 0.0037 s⁻¹; kon (human FcRn [6]): 640000 M⁻¹ s⁻¹; pIC50 (human FcRn [4]; maturated His6-tagged monomeric Z variants): 8.49

— US9975943B2, “Polypeptides” (AFFIBODY AB, priority 2013, dated 2018)
